Assay results from US9493727B2 (priority 2010, dated 2016).

Parameters: key to Nonionic 24 h, emulsion stability, mL separation / Nonionic 1 h, emulsion stability, mL separation: D = dispersable; S = soluble; I = insoluble; Tr = trace; Floc = flocculation observed
Method: Surfactant candidates for water soluble herbicide applications are examined as a replacement for the anionic, nonionic, or anionic/nonionic blend portion and compared to a known industry adjuvant standard for use in paraquat, a water soluble herbicide concentrate formulation. A standard dilution test is conducted whereby the concentrates are diluted in water to determine if solubility is complete.
A known industry paraquat adjuvant (2.8 g) is added and vigorously mixed for 30 s. Deionized water (8.07 g) is added, and mixing resumes for 30 s. Standard 342 ppm water (47.5 mL) is added to a 50-mL Nessler cylinder, which is stoppered and equilibrated in a 30° C. water bath. Once the test water equilibrates, the formulated paraquat (2.5 mL) is added by pipette into the cylinder. The cylinder is stoppered and inverted ten times. Solubility is recorded as complete or incomplete. Cylinders are allowed to stand and the amount (in mL) and type of separation are recorded after 30 min., 1 h, 2 h, and 24 h. Results of the solubility testing appear in Table 5 below.
Anionic test sample: Paraquat (4.57 g of 43.8% active material) is added to a 20-mL glass vial. An eight to ten mole alkyl phenol ethoxylate surfactant (0.7 g) is added and vigorously mixed for 30 s. Test sample (0.7 g) is added and mixing resumes for 30 s. Deionized water (4.03 g) is added, and mixing resumes for 30 s.
Nonionic test sample: Paraquat (4.57 g of 43.8% active material) is added to a 20-mL glass vial. Test sample (0.7 g) is added and vigorously mixed for 30 s. Sodium linear alkylbenzene sulfonate (“NaLAS,” 0.7 g) is added and mixing resumes for 30 s. Deionized water (4.03 g) is added, and mixing resumes for 30 s.
Adjuvant (anionic/nonionic) test sample: Paraquat (4.57 g of 43.8% active material) is added to a 20-mL glass vial. Test sample (1.4 g) is added and vigorously mixed for 30 s. Deionized water (4.03 g) is added, and mixing resumes for 30 s.

[1] = test sample replaces nonionic portion, 1 h
[2] = test sample replaces nonionic portion, 24 h

Compound | Nonionic 1 h, emulsion stability, mL separation [1] | Nonionic 24 h, emulsion stability, mL separation [2] | Adjuvant 1 h, emulsion stability, mL separation | Adjuvant 24 h, emulsion stability, mL separation | Anionic 1 h, emulsion stability, mL separation | Anionic 24 h, emulsion stability, mL separation | Nonionic 1 h, emulsion stability, mL separation | Nonionic 24 h, emulsion stability, mL separation
CN(C)CCCNC(=O)CCCCCCCCC(CCCCCCCC(=O)NCCCN(C)C)S(=O)(=O)[O-].[Na+] (centres unmarked) [Sample C18-68, C18 diDMAPA Amide Sulfonate] | Tr | Tr |  |  |  |  |  | 
C[N+](C)([O-])CCCNC(=O)CCCCCCCCC(CCCCCCCC(=O)NCCC[N+](C)(C)[O-])S(=O)(=O)[O-].[Na+] (centres unmarked) [Sample C18-30, C18 DiDMAPA DiAO Sulfonate] | Tr | Tr |  |  |  |  |  | 
C10 DMAPA AO Sulfonate [Sample C10-21] |  |  | 0 mL | 0 mL | 0 mL | 0 mL | 0.25 mL | 0.5 mL
C[N+](C)([O-])CCCNC(=O)CCCCCCC/C=C/CCCCCCCC(=O)NCCC[N+](C)(C)[O-] [Mix-29, C18 DiDMAPA DiAO] |  | Tr |  |  |  |  |  | 
MTG DMAPA AO [MTG-12] |  |  | 0 mL | 0 mL | 0 mL | 0 mL | 0 mL | 0 mL

Read-outs that look alike come from different tables or passages of the source.
